# Assay results from article PMC12136788.
# The other results are listed elsewhere or left out.
# T1: UNK ZnF1-3 (human, UniProt Q9C0B0 31-174)
# T1 sequence: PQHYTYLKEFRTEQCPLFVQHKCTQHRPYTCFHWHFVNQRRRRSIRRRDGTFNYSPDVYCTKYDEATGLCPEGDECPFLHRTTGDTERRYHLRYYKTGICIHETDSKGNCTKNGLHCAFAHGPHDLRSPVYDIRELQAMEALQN
# B1: chr19:8913615:8913616:-_ENSMUSG00000071658_ENSMUST00000096259|mus_hu|mus_mus_mus_hu_False|18_68 (ssRNA)
# RNA: GGGAGUUCUACAGUCCGACGAUCAGGGUACCAAAACCUUCUGCCUGAAAUGGGUGCCCCACCCAGUCAGGACUUGGAGCUGAAAGUAUCUGAUGCAGAAGCAGUGACUAUACGAAAGGUCACUAGAGGGGAGGGCCAGGCCAGCAACAGAGGAUUGAGCAUCA
# B2: chr4:48850422:48850423:+_ENSG00000109180_ENST00000264312|hu_hu|FALSE|FALSE (ssRNA)
# RNA: GGGAGUUCUACAGUCCGACGAUCAGCAAGUAUAAGUUUAGGGAUGGAACCAUAUUUGGGAUGACUUGAAAGUAUUCCUUUACUAAUUAAUCCUUGAGUAAUCAACAUACUUGUUGCAGCCAAAGGCACAGAUCUGAACCAGAACAACAGAGGAUUGAGCAUCA
# B3: chr12:45383586:45383587:+_ENSMUSG00000036257_ENSMUST00000043082|mus_mus|FALSE|FALSE (ssRNA)
# RNA: GGGAGUUCUACAGUCCGACGAUCAAAUAUAUAUAUCUAGAGUCAAAUUAAUAGACAUAACUUAAAAAUCAUUUAUUUUCUAUGUGACAUUCUCUCAUUCCAUUCCUGAAUGCUUCAUUUAGGAAAUUCCAUAAUUCAUGGUCUCAACAGAGGAUUGAGCAUCA
# B4: chr9:91931296:91931297:+_ENSG00000123975_ENST00000314355|hu_hu|hu_hu_hu_mus_True|48_98 (ssRNA)
# RNA: GGGAGUUCUACAGUCCGACGAUCAGAUUAGAUGAUCCCAGAUAAACUUCAUUUUUGUUGUUCUUUUGGAAGAGGUCGUCUAAAGAGAAGAAUAUGUGGUUCUGGCUCAUGAAUCAUGUAAUGAACCCAUCCUAGACUCUGUUGCAACAGAGGAUUGAGCAUCA
# B5: chr6:86333760:86333761:-_ENSG00000135316_ENST00000355238|hu_mus|hu_hu_hu_mus_True|18_108 (ssRNA)
# RNA: GGGAGUUCUACAGUCCGACGAUCUUCUUCAAGAAUCUGCUCCUUGGUUUUACUCUUAGGAAUCGAGCCCACAAAAAGCCUAUUGUUGGCAACUGAGAUGCAGACACCAAUGUGCUUUCCAGAACGAAUUUCAUGAUUAUUAUACAACAGAGGAUUGAGCAUCA
# B6: chr3:176767854:176767855:-_ENSG00000177565_ENST00000430069|hu_mus|FALSE|FALSE (ssRNA)
# RNA: GGGAGUUCUACAGUCCGACGAUCGACAUCCUUGUUACUGGGCACGUCCUGCCCUCCUUCCCGUAUGCAGUGUCUAAGCACGAGCUGCGUAGGGCCACUCGUGCUGUUCUCACUGAGGUUCCAGAUUCUUGCCGUGGAGUCUCCCAACAGAGGAUUGAGCAUCA
# Biological target: T1, UNK ZnF1-3
# Test: nsRBNS (natural sequence RNA bind-n-seq); RBNS binding buffer (assumed for nsRBNS): 25 mM Tris pH 7.5, 150 mM KCl, 3 mM MgCl2, 0.01% Triton X-100, 500 ug/ml BSA, 20 U/ml SUPERase-In, 4 C; UNK is unkempt and MSI1 is Musashi-1; names of the RNAs are library labels; protein concentration not given here; high values mean tight binding
row,Binder,binding signal [enrichment R]
1,B1,0.908
2,B2,1.91
3,B3,0.667
4,B4,1.03
5,B5,1.55
6,B6,0.402
